# In PubChem BioAssay AID686970 (National Center for Advancing Translational Sciences (NCATS), 2013):
# The campaign covered roughly 360,000 compounds. About 6,000 (1.7%) were called active. Inconclusive means that the source gave no clear call. Such entries were picked first, then a sample of the others. The call rests on the fitted dose curve; in most records, active means well fitted cell-killing curve with a large enough effect; inconclusive means small, poorly fitted or top-dose-only effect, or effect the other way; inactive means flat fitted curve, though single readings scatter. No potency is given beside an inconclusive call; the fits are too rough.
# Experiment: qHTS for induction of synthetic lethality in tumor cells producing 2HG: qHTS for the HT-1080-NT fibrosarcoma cell line;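 further: NT is the 2HG producing partner of a matched IDH1 knockdown line; nearly all actives have a fitted effect of over 55% in size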;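 on activity, negative = less viability: 0% = DMSO-treated cells and -100% = media-only wells without cells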
# Conditions: HT-1080-NT fibrosarcoma viability, CellTiter-Glo ATP luminescence, 48 h; activity, negative = less viability: at 46.1 µM (top of the series) unless noted
# Method in brief: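 Read-out is CellTiter-Glo luminescence after 10 minutes at room temperature, following 48 hours' compound treatment of HT-1080-NT cells (750 cells/well, RPMI, 5% FBS, 37 degrees C).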
# Potency means the concentration at half of the fitted maximal effect; tags describe the fitted curve by direction and shape.
Compound,Potency,"activity, negative = less viability"
CCOC(=O)C1(CCOc2ccccc2)CCN(Cc2ccc(OC)cc2)CC1,"inconclusive [cytotoxic, single point]",
COc1ccc(CN2CCNC(=O)C2CC(=O)NCCN2CCCCC2=O)c(F)c1 (centres undefined),,inactive: -7.11%
COC(=O)c1ccc2nc(C3CCCCC3)c(Cc3cccc(Cl)c3)n2c1,"inconclusive [cytotoxic, single point]",
Cc1ccc(/C=N/NC(=O)Cc2ccc(Cl)cc2)c(O)c1,"inconclusive [cytotoxic, partial curve]",
O=C(NC(=S)Nc1cccc(S(=O)(=O)NC2=NCCC2)c1)c1cc(-c2ccco2)nc2ccccc12,active: 9.2 µM,
CCCCn1nnnc1C(c1cc2ccccc2o1)N1CCN(c2cc(C)nc3ccccc23)CC1 (centres undefined),active: 18.4 µM,
O=C(NCc1ccccn1)/C(=N/O)c1ccccc1,,inactive: 25.4%
CC1(C(=O)NS(=O)(=O)C2CC2)CCCN(C(=O)c2cccs2)C1 (centres undefined),,inactive: 29.5%
O=C(Nc1cccc(C(=O)N2CCCCC2)c1)c1ccccc1,"inconclusive [rising, single point]",
Cc1nn(-c2ccccc2)c(C)c1/C=N/NC(=O)c1cc(-c2ccccc2)n[nH]1,active: 0.731 µM,
COCCNc1nc(NCc2ccc(NC(C)=O)cc2)c2sc(-c3ccccc3)cc2n1,active: 9.2 µM,
O=C1/C(=C/c2ccccc2[N+](=O)[O-])COc2ccccc21,active: 8.2 µM,
O=C(COc1ccc2ccccc2c1Br)NC(=S)Nc1cccc(CO)c1,"inconclusive [cytotoxic, single point]",
O=C(NCc1ccccc1)C(c1ccco1)N1CCN(c2ccccc2F)CC1 (centres undefined),,inactive: 15.1%
C=C1CCC[C@]2(C)C[C@H]3OC(=O)C(CNCCN(C)C)[C@H]3CC12 (some centres undefined),"inconclusive [cytotoxic, single point]",
CC#Cc1cc2c(cc1O)CCC1C2CCC2(C)C(O)CCC12 (centres undefined),active: 8.2 µM,
COc1ccc2nc(C)cc(N/N=C/c3cccc(OC)c3O)c2c1,"inconclusive [cytotoxic, single point]",
CCC(=O)Nc1ccc(NC(=O)CSc2nnnn2Cc2ccccc2)cc1C,,inactive: 2.34%
COc1cc(C(=O)N/N=C(\C)c2ccccn2)cc(OC)c1OC,"inconclusive [cytotoxic, full curve]",
CCCCNc1nc(Nc2ccc(C)c(Cl)c2)c2cnn(C)c2n1,"inconclusive [cytotoxic, partial curve]",
Cc1cc(C)nc(SSc2nc(C)cc(C)n2)n1,"inconclusive [cytotoxic, single point]",
O=C1NC[C@H](Cc2ccccc2)N(C[C@H]2CCCN2C[C@H](Cc2ccc(O)cc2)N2C[C@H](Cc3ccc(O)cc3)N(CC3CCCCCC3)C(=O)C2=O)C1=O,"inconclusive [cytotoxic, single point]",
O=C(NC1CCN(C(=O)Nc2ccc(F)cc2)CC1)c1ccc(F)cc1,,inconclusive: 34.9%

Compound,Potency,"activity, negative = less viability"
COc1ccc(/C=C2/Sc3ccc(C(=O)NCCCN4CCOCC4)cc3NC2=O)cc1OC,"inconclusive [cytotoxic, single point]",
COc1ccc(CCCC(=O)NCc2ccccc2)cc1C,"inconclusive [cytotoxic, single point]",
CC1CC(C)CN(C(=O)/C=C/c2ccc([N+](=O)[O-])s2)C1 (centres undefined),"inconclusive [cytotoxic, single point]",
Cc1cc(C(=O)N(Cc2nnc(-c3ccc(Cl)cc3)o2)C(C)C)c2ccccc2n1,,inactive: 11.7%
CCOC(=O)c1ccc(NC(=O)CCc2nc(-c3ccc(C)cc3)no2)cc1,"inconclusive [cytotoxic, single point]",
O=C(NC1CCCC1)C(c1ccc(F)cc1)N(Cc1ccccc1Cl)C(=O)CCl (centres undefined),"inconclusive [cytotoxic, single point]",
CCCCN(C)C(=O)c1sc(=O)n(CC(=O)c2ccccc2OC)c1C,,inactive: 20.2%
CCc1n[nH]c2c1C(=O)CC(C)(C)C2,,inconclusive: 35.6%
O=C(Nc1ccccc1F)c1ccc(CNS(=O)(=O)c2cccc(C(F)(F)F)c2)cc1,"inconclusive [cytotoxic, partial curve]",
COc1cccc(NC(=O)c2ccc(NCCCN3CCC(C)CC3)c([N+](=O)[O-])c2)c1,"inconclusive [cytotoxic, partial curve]",
CCN(CC)c1ccc2cc(C(N)=O)/c(=N\NC(=O)c3ccncc3)oc2c1,"inconclusive [cytotoxic, single point]",
N#CCNC(=O)c1nn2c(C(F)(F)F)cc(-c3ccccc3)nc2c1Br,,inactive: 6.91%
c1ccc2c(Nc3ccc(N4CCOCC4)cc3)nc(N3CCOCC3)nc2c1,"inconclusive [cytotoxic, single point]",
CCCN1CNc2c(c(=O)[nH]c(=S)n2CCc2ccc(C)c(C)c2)C1,"inconclusive [cytotoxic, single point]",
C=C(C)CNC(=S)NNC(=O)CCn1c2ccc(Cl)cc2c2cc(Cl)ccc21,"inconclusive [cytotoxic, single point]",
CC1CCN(C(=O)CSc2nnc(CNC(=O)c3ccc(S(=O)(=O)N(C)C)cc3)o2)CC1,,inactive: 1.06%
O=C(Nc1ccc(F)cc1)C(c1cccc(F)c1)N1CCN(Cc2c(F)cccc2Cl)CC1 (centres undefined),"inconclusive [cytotoxic, single point]",
NC(=O)Nc1ccc(C(=O)OCC(=O)Nc2ccc(Cl)cn2)cc1,,inactive: 0.194%
COc1ccc2c(C)nc(Nc3nc(-c4ccccc4)cc(=O)[nH]3)nc2c1,"inconclusive [cytotoxic, full curve]",
C=CCOc1nc2c(c(=O)n(C)c(=O)n2C)n1Cc1ccc(Cl)cc1,,inactive: 2.66%
C/C(=N\NC(=O)c1c(C)nc2ccccn12)c1cccc([N+](=O)[O-])c1,"inconclusive [rising, single point]",
COC(C(=O)Nc1ccnn1C1CCN(Cc2ccc(Cl)s2)CC1)c1ccccc1 (centres undefined),,inactive: -6.89%
CC1CCC(NC(=O)CN(C)CC(=O)Nc2ccc(F)cc2)CC1 (centres undefined),,inactive: -0.112%

Compound,Potency,"activity, negative = less viability"
CN(CC(=O)Nc1cccc(F)c1)C(=O)CCc1nc2cc(S(=O)(=O)N3CCOCC3)ccc2n1C,,inactive: 6.18%
COc1ccc(C(=O)NCCn2cc(SCC(=O)Nc3nnc(C)s3)c3ccccc32)cc1,,inactive: 1.81%
Cc1ccc(C(=O)N2c3ccccc3N=C(c3ccccc3)C2C(=O)NC(C)C)cc1 (centres undefined),"inconclusive [cytotoxic, single point]",
CSc1nc(-c2ccc(Cl)cc2)nc(N)c1C#N,,inconclusive: -17% [cytotoxic]
COc1ccc(NC(=O)CN2c3cccc4cccc(c34)S2(=O)=O)c(OC)c1,"inconclusive [cytotoxic, single point]",
COc1ccc(C(C(=O)NC2CCCCC2)N(C(=O)c2sc(C)nc2C)c2ccccc2C)cc1 (centres undefined),"inconclusive [cytotoxic, single point]",
C[C@H](CO)N1C[C@H](C)[C@@H](CN(C)Cc2ccc(Oc3ccccc3)cc2)Oc2c(NC(=O)C3CC3)cccc2C1=O,"inconclusive [cytotoxic, single point]",
NC(=O)c1ccc[n+]([C@H]2O[C@@H](COP(=O)([O-])OP(=O)(O)OC[C@H]3O[C@@H](n4cnc5c(N)ncnc54)[C@H](O)[C@@H]3O)[C@H](O)[C@@H]2O)c1,"inconclusive [cytotoxic, single point]",
O=S(=O)(NCc1ccccc1)c1ccc(S(=O)(=O)N2CCCC2)cc1,,inconclusive: -12.5% [cytotoxic]
COC(=O)[C@]1(CC(C)C)N[C@H](c2ccc(-c3ccccc3)cc2)[C@@H]2C(=O)N(C)C(=O)[C@@H]21,"inconclusive [rising, partial curve]",
CC1CCC2(CC1)C(Nc1cccc(Cl)c1)=NC(=S)N2CC#N (centres undefined),,inconclusive: -30.6% [cytotoxic]
Cc1cccc(C(=O)NCc2nnc(SCC(=O)NC3=NCCS3)n2C)c1,,inactive: -2.36%
COc1ccc2cc(Br)ccc2c1CC(=O)NC1CC(C)(C)NC(C)(C)C1,"inconclusive [cytotoxic, single point]",
COc1ccc(C(O)c2nc(-c3cc(F)cc(F)c3)cs2)cc1 (centres undefined),"inconclusive [cytotoxic, single point]",
CCC(=O)Nc1ccc(C(=O)CSc2nnc(-c3ccccc3F)n2C2CC2)cc1,,inactive: 0.776%
COc1ccc(C(=O)Nc2nc(C)cc(C)n2)cc1[N+](=O)[O-],,inactive: 2.14%
COc1ccccc1CNc1nc(NCc2cccc(OC)c2OC)c2sccc2n1,active: 20.6 µM,
CCc1nc2ccc(C(=O)NC3CCN(Cc4ccccc4)CC3)cn2c1N(C)Cc1cc2ccccc2s1,active: 16.4 µM,
COc1ccc(O)c(/C=N\NC(=O)CCn2nnc3ccccc32)c1,"inconclusive [cytotoxic, partial curve]",
CCOC(=O)c1c(CN2CCN(CC#N)CC2)n(C)c2cc(Br)c(OC)cc12,"inconclusive [cytotoxic, single point]",
COc1cc(C(=O)OCC(=O)NC2CCCCC2)cc(OC)c1OC,,inactive: -2.36%
COc1cccc2sc3ccc(C#CC4(O)CCCCC4)cc3c(=O)c12,"inconclusive [cytotoxic, single point]",
Cc1ccc(-c2cc(C(F)F)n3ncc(C(=O)N4CCc5ccccc54)c3n2)cc1,active: 2.91 µM,
